Assay results reported in PubChem BioAssay AID1347417 (National Center for Advancing Translational Sciences (NCATS), 2020).
Screen size: about 120,000 compounds; about 5,300 (4.4%) were called active. This list was built around the results that the source calls inconclusive (neither active nor inactive); the mix of calls is not that of the screen. The call rests on the fitted dose curve; in most records, active means well fitted inhibition curve with a large enough effect; inconclusive means small, poorly fitted or top-dose-only effect; inactive means no such curve, though single readings can be large or run the other way. Where the call is inconclusive, the potency comes from a doubtful curve fit.

Assay: qHTS Primary assay for Inhibitors of Plasmodium falciparum Dd2 growth in vitro; further: nearly all actives have a fitted effect of over 65% in size
Conditions: P. falciparum Dd2 growth, SYBR Green, 72 h; series mostly up to 28.9 µM
Method in brief: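 Readout: SYBR Green fluorescence, 485 nm excitation, 535 nm emission, after ~16 h lysis at 37C. Before that, Dd2-infected red cells (2.5% hematocrit) grew 72 h with compound, 29 uM top final concentration.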
Potency means the concentration at half of the fitted maximal effect; tags describe the fitted curve by direction and shape.

SMILES	Potency	outcome
COc1ccccc1CN(C)C1CCOc2ccccc21 (configuration not stated)	inconclusive: 1.26 µM [inhibitor, partial curve, poor fit]	–
COc1ccc(NC(=O)c2sc3nc4c(cc3c2N)CN(C(C)C)CC4)c(OC)c1	inconclusive: 17.8 µM [inhibitor, single point]	–
COc1ccc(S(=O)(=O)c2c(Nc3ccc(C)cc3)sc(C(=O)c3ccc(C)cc3)c2N)cc1	active: 10 µM	–
COc1cc(CNC(=O)c2nc(C(O)c3ccccn3)oc2C)cc(OC)c1 (configuration not stated)	inactive	–
CN1C(=O)CCCCC1C(=O)N1CCCCC1 (configuration not stated)	inactive	–
COc1ccc(CN2C[C@@H]3C(=O)N(CCc4ccccc4)C(=O)[C@@H]3C2)c(OC)c1	inconclusive: 10 µM [inhibitor, single point]	–
CCN(CC)c1cc(CCC(=O)NCc2cc(F)ccc2F)ccn1	inconclusive: 5.62 µM [inhibitor, partial curve, poor fit]	–
COCCNC(=O)c1ccc2c(c1)N(C)C(CC(=O)N1CCCOCC1)CO2 (configuration not stated)	inconclusive: 0.708 µM [inhibitor, partial curve, poor fit]	–
CC(=O)N1C(=O)COC[C@@H]1[C@H](O)c1ccc(NC(=O)C2CCC2)cc1	inactive	–
COc1ccc(-c2ccc(CNc3ccc4[nH]c(=O)[nH]c4c3)o2)cc1Cl	inconclusive: 8.91 µM [inhibitor, single point]	–
CC(C)(C)C(=O)Nc1ccc([C@H]2OCC(=O)N(Cc3ccccc3)[C@@H]2CO)cc1	inactive	–
COCCN1CCCCCC(O)c2cc(C(=O)NCC3CCCCC3)ccc21 (configuration not stated)	inconclusive: 0.891 µM [inhibitor, partial curve, poor fit]	–
COc1ccc(C(=O)NCC2c3cc(OC)c(OC)cc3CCN2C(=O)Nc2cccc(C)c2)cc1 (configuration not stated)	inconclusive: 2 µM [inhibitor, partial curve, poor fit]	–
CC(C)c1ccc(CN2CCc3ncc(C(=O)Nc4ccccc4)n3CC2)cc1	active: 12.6 µM	–
CCN(CC)c1cc(CCC(=O)N2CCC(C)CC2)ccn1	inconclusive: 8.91 µM [inhibitor, partial curve]	–
Cc1noc(-c2cn(C3CCN(C(=O)c4cccc(C(F)(F)F)c4)C3)nn2)n1 (configuration not stated)	inconclusive: 17.8 µM [inhibitor, single point]	–
COCCN1CC2(CCCN(Cc3ccc4ccn(C)c4c3)C2)CCC1=O (configuration not stated)	inconclusive: 10 µM [inhibitor, single point]	–
O=C(CCCn1c(=O)c2cccn2c2ccc(F)cc21)NCCc1ccccc1	inconclusive: 10 µM [inhibitor, single point]	–
O=C1[C@@H]2C[C@@H](CN2C(=O)c2ccc(C(F)(F)F)cc2)Oc2ccccc2N1Cc1ccccc1	inactive	–
CCCN1CC[C@@H](CO)N(C)c2nc(C)ccc2C1	inconclusive: 12.6 µM [inhibitor, single point]	–
c1ccc(-c2noc(-c3cncnc3Nc3ccc4c(c3)OCO4)n2)cc1	active: 5.62 µM	–
COc1ccc(C(=O)N2CCC3(CC2)CC(N(Cc2ccccc2)C2CC2)CCO3)cc1 (configuration not stated)	inconclusive: 7.94 µM [inhibitor, partial curve, poor fit]	–
CCC1Oc2ccc(NC(=O)COc3ccccc3)cc2CN(C(CC)c2ccccc2)C1=O (configuration not stated)	inconclusive: 3.55 µM [inhibitor, single point]	–

SMILES	Potency	outcome
O=C(NC1CCCCC1)C1CN(S(=O)(=O)c2ccccc2Cl)CC12CCOCC2 (configuration not stated)	inconclusive: 10 µM [inhibitor, single point]	–
Cc1cccc(C(=O)Nc2c(-c3ccc(F)cc3)nc3ccccn23)c1	inconclusive: 17.8 µM [inhibitor, single point]	–
Cc1cn2nc(C(=O)NCc3ccccc3Cl)cc2c(N2CCSCC2)n1	inconclusive: 3.98 µM [inhibitor, single point]	–
Cc1cc(CN(C)c2ccc(-c3nc(COc4ccccc4)no3)cn2)on1	inconclusive: 17.8 µM [inhibitor, single point]	–
Cc1ccc(C)c(N2CCN(C(=O)c3cc4c(=O)n(Cc5cccnc5)ccc4nc3C)CC2)c1	inconclusive: 11.2 µM [inhibitor, single point]	–
Cc1cccc(CSc2nc3cccnc3n2Cc2ccc(C(=O)NCc3cccs3)cc2)c1	inactive	–
CCC1(N2CCN(C(=O)CCc3c[nH]c4ccccc34)CC2)CCN(C(=O)NC)C1 (configuration not stated)	inconclusive: 17.8 µM [inhibitor, single point]	–
O=C1Nc2ccccc2C12CCN(Cc1ccc(C(F)(F)F)cc1)C2 (configuration not stated)	inconclusive: 12.6 µM [inhibitor, single point]	–
CC(=O)Nc1ccc(CN[C@@H]2CO[C@H](CNC(=O)NC(C)C)[C@H]2O)cc1	inconclusive: 31.6 µM [inhibitor, partial curve, poor fit]	–
COc1cccc(-c2ccc3c(N)c(C(=O)Nc4ccc(Cl)cc4F)sc3n2)c1	inactive	–
Cc1ccc(C(c2cccnc2)n2cc(-c3cncnc3)nn2)cc1C (configuration not stated)	inactive	–
CC(C)Cn1c(=O)c2sccc2n2c(CCCC(=O)NCC(C)c3ccccc3)nnc12 (configuration not stated)	inconclusive: 11.2 µM [inhibitor, partial curve, poor fit]	–
O=C(NCCN1CCN(c2ccccc2F)CC1)C1COc2ccccc2C1 (configuration not stated)	inactive	–
Cc1ccc(CN2CCC3(CC2)NC(=O)c2ccccc2O3)cc1	inactive	–
Cc1nnc(N2CCCC(C(=O)Nc3ccccc3C(F)(F)F)C2)c2nn(-c3ccccc3)c(C)c12 (configuration not stated)	inconclusive: 12.6 µM [inhibitor, partial curve]	–
O=C(NCCn1cccc1-c1nc(-c2ccc3c(c2)OCO3)no1)c1cccc(F)c1	inconclusive: 17.8 µM [inhibitor, single point]	–
CCOC(=O)c1sc(NC(=O)c2nc3ncccn3n2)c(C(=O)OC(C)C)c1C	inconclusive: 0.708 µM [inhibitor, full curve]	–
CCOc1ccccc1N1CC(c2nc3ccccc3n2CCOc2ccc(OC)cc2)CC1=O (configuration not stated)	inconclusive: 17.8 µM [inhibitor, single point]	–
CC(=O)N(Cc1cccnc1)c1nc2c(C)cc(C)cc2s1	inconclusive: 20 µM [inhibitor, partial curve, poor fit]	–
CCCc1cc(C(=O)N2CCN(C)C3(CCC(=O)N(CC)CC3)C2)n(C)n1 (configuration not stated)	inactive	–
CCN1C(=O)CCN(C(=O)C2(c3ccc(OC)cc3)CC2)CC12CCOCC2	inactive	–
Cc1noc(C)c1-c1cc2c(cc(C)n2C)c(NCCN(C)C)n1	inconclusive: 0.631 µM [inhibitor, full curve, poor fit]	–
CCOC(=O)C1(C)C=C(Nc2ccc(OC)cc2)C(=O)N1c1ccccc1 (configuration not stated)	inconclusive: 20 µM [inhibitor, single point]	–

SMILES	Potency	outcome
CCN(CC)Cc1cc(C2CC(=O)Nc3n[nH]c(C(=O)O)c32)ccc1OC (configuration not stated)	inactive	–
CCOC(=O)c1ccc(NC(=O)c2ccc3c(c2)c(C)c(C)n3Cc2ccc(F)cc2)cc1	inconclusive: 17.8 µM [inhibitor, single point]	–
CNC(=O)C1(N2CCC[C@H]2C(=O)N2CCC(C)CC2)COC1	inactive	–
C=CCCC(=O)N1CCOc2c(O)cc(-c3nc4ccccc4s3)cc2C1	active: 11.2 µM	–
COc1cccc(CCC(=O)N2CCC(c3nn(C)c4c3COCC4)CC2)c1	–	inactive [at 5.79 µM]
COc1ccccc1CC(=O)NCCn1ccn2nc(-c3ccc(C)c(C)c3)cc2c1=O	inconclusive: 0.562 µM [inhibitor, full curve, poor fit]	–
COc1cc(OC)cc(C(=O)NC2CCCN(c3cc(-c4ccccc4)[nH]n3)C2)c1 (configuration not stated)	inactive	–
O=C(NCCc1ccc(Cl)cc1)c1nc(-c2cccc(C(F)(F)F)c2)c2cnccn12	inconclusive: 3.55 µM [inhibitor, single point]	–
COc1c(F)cc(CN2CCCC3(CCNC3)C2)cc1F (configuration not stated)	inconclusive: 10 µM [inhibitor, partial curve]	–
O=C(Cc1cccc(F)c1)N1CCC2(CC1)N(c1ccccc1)C(=O)CS2(=O)=O	inconclusive: 4.47 µM [inhibitor, partial curve]	–
O=C(NCCn1cccc1-c1nc(-c2ccc3c(c2)OCO3)no1)c1ccc(Cl)s1	inconclusive: 17.8 µM [inhibitor, single point]	–
CC(C)C1=NOC2(CCN(C(=O)c3ccc4c(c3)OCO4)CC2)C1	inconclusive: 12.6 µM [inhibitor, single point]	–
Clc1ccc(-c2nnc3n2CCN(CC2CC2)C3)cc1	inactive	–
Cc1ccoc1C(=O)N1CCCn2ccnc2C1c1cnn(C)c1 (configuration not stated)	inactive	–
CCNC(=O)N1CC(C(=O)N2CCCC(C(=O)OCC)C2)CC(c2ccc(F)c(C)c2)C1 (configuration not stated)	inconclusive: 7.08 µM [inhibitor, partial curve, poor fit]	–
Cc1ccccc1CN1CCCC(CCNS(=O)(=O)C2CC2)C1 (configuration not stated)	active: 10 µM	–
COc1ccc(Cn2cc(C(=O)c3ccc(Cl)cc3)c(=O)c3cc4c(cc32)OCO4)cc1	inconclusive: 11.2 µM [inhibitor, single point]	–
COc1ccc(-c2noc(CC3CCN(C(=O)C4CCN(C(=O)c5ccccc5)CC4)CC3)n2)cc1	inconclusive: 12.6 µM [inhibitor, single point]	–
COC(=O)c1cccc(NC(=O)C2CCc3sc(C(=O)N(C)C)cc3C2)c1 (configuration not stated)	inactive	–
CCCNC(=O)c1cc(-c2ccc(F)cc2)cn1C	inactive	–
Cc1nc(C(C)C)cc(N2CCN(c3ccccc3O)CC2)n1	inconclusive: 20 µM [inhibitor, partial curve, poor fit]	–
